Measurements from PubChem BioAssay AID1347165 (National Center for Advancing Translational Sciences (NCATS), 2019).
Several values for one entry are separate records, joined by “and”; a condition that tells them apart may be missing. Equal values may be shown once. Out of some 220,000 compounds screened, about 5,700 (2.6%) were called active. This list was built around the results that the source calls inconclusive (neither active nor inactive); the mix of calls is not that of the screen. Calls come from the whole dose curve; as a rule, active = well fitted inhibition curve with a large enough effect; inconclusive = small, poorly fitted or top-dose-only effect; inactive = no such curve, though single readings can be large or run the other way. Potencies of inconclusive entries are doubtful fits and often do not repeat.

target: Lysine-specific demethylase 5B (Homo sapiens) (UniProt Q9UGL1); test: Primary screen for KDM5B Histone Demethylases FDH-coupled qHTS; details: FDH-coupled NADH fluorescence (FDH is formaldehyde dehydrogenase); activity change, negative = inhibition: at 57.7 µM (top of the series) unless noted; note: nearly all actives have a fitted effect of over 70% in size; for activity change, negative = inhibition: 0% is about no effect
How it was run: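 Here, H3K4me3 peptide (12.5 µM in substrate mix) is demethylated by KDM5BΔAP, 200 nM final, after 10 min compound exposure. Formaldehyde product is coupled through FDH (0.25 U/mL in mix) to NADH fluorescence; 30-min ΔRFU feeds dose-response curves.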
Potency is the fitted concentration of half-maximal effect; tags give direction and shape of the fitted curve.

Chain of UniProt Q9UGL1 (Q9UGL1 whole entry, looked up): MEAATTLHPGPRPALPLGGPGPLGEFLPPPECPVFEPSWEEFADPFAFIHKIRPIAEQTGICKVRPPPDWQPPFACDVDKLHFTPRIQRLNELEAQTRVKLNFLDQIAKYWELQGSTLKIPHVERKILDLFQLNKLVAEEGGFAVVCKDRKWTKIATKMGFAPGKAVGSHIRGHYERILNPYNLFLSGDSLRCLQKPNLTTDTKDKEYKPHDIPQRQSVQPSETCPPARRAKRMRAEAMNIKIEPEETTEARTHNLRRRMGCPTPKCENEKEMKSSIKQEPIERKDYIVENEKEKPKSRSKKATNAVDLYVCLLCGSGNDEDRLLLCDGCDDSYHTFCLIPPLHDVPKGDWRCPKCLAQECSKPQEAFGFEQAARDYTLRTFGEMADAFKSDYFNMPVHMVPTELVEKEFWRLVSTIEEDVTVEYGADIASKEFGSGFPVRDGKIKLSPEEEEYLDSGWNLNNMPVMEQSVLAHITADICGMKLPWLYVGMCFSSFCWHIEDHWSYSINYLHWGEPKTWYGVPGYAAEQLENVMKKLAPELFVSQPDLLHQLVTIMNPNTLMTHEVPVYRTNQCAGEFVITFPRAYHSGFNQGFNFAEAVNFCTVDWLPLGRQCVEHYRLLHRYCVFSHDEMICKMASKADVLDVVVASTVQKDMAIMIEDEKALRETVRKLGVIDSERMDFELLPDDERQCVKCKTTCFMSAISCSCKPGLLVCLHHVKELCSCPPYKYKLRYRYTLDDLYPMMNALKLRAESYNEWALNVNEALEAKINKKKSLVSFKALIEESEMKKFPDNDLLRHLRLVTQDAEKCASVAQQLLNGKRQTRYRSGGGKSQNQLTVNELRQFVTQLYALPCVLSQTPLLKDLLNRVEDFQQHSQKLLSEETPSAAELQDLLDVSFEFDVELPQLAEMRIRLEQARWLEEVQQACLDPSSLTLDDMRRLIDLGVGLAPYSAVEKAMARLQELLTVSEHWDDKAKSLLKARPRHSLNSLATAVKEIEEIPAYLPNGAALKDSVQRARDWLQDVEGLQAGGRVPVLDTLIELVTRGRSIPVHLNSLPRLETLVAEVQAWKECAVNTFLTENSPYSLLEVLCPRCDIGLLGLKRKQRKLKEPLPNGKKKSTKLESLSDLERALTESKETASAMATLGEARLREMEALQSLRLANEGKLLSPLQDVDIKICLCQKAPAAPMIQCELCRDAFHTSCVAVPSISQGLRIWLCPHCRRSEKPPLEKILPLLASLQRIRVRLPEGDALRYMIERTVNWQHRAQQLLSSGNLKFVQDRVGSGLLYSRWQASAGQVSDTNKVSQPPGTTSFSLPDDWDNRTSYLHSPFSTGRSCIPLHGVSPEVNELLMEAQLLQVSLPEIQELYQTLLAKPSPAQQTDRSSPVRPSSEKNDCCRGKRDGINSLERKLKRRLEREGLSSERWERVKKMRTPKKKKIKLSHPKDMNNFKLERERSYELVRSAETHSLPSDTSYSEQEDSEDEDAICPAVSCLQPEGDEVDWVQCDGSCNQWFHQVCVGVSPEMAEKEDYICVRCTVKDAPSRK

SMILES	activity change, negative = inhibition	Potency
N#C/C(=C\c1c[nH]c2ccccc12)c1ccccc1	inactive: -26.7%	–
CCn1c(CO)nnc1C1CC(NC(=O)c2cnn3cc(C)cnc23)C1 (stereo not given)	–	inconclusive: 22.4 µM [inhibitor, partial curve, poor fit] and active: 28.2 µM
COc1cccc(/C=N/NC(=O)CSc2cccc3cccnc23)c1	–	inconclusive: 25.1 µM [inhibitor, partial curve, poor fit]
Cc1cc(Nc2cccc(C(F)(F)F)c2)nc(NCc2ccccc2)n1	–	inconclusive: 28.2 µM [inhibitor, partial curve, poor fit]
COc1ccc(CCNC(=O)c2c(O)c3ccccc3[nH]c2=O)cc1OC	–	inconclusive: 39.8 µM [inhibitor, single point]
COC(=O)c1cn(C(=O)c2cccc(Br)c2)c2ccccc12	–	inconclusive: 28.2 µM [inhibitor, single point]
Cc1ccc(OCCN2CCC3(CC2)C(C(=O)O)CC(=O)N3C)c(C)c1 (stereo not given)	–	inconclusive: 22.4 µM [inhibitor, partial curve, poor fit]
Cc1ccc(CN2C(=O)C(=O)c3cc(Br)cc(C)c32)cc1	–	inconclusive: 15.8 µM [inhibitor, partial curve, poor fit]
CCC(C(=O)Nc1ccccc1)n1nc(-c2cc(C)ccc2C)ccc1=O (stereo not given)	–	inconclusive: 28.2 µM [inhibitor, single point]
O=C(NC1CCCC1)C(Sc1nc2ccccc2o1)c1ccccc1 (stereo not given)	inactive: 19.3%	–
COc1ccc(OC)c(NC(=O)COC(=O)CCS(=O)(=O)c2ccc(Cl)cc2)c1	–	inconclusive: 39.8 µM [inhibitor, single point]
COc1ccc(-c2nc(CCNC(=O)c3c(F)cccc3Cl)cs2)cc1	–	inconclusive: 31.6 µM [inhibitor, partial curve, poor fit]
O=C1N(c2ccccc2)c2ccccc2C12CCN(Cc1ccc(F)cc1)C2 (stereo not given)	inactive: -0.768% [at 115 µM]	–
CC(C)CCN1CCc2c(sc3ncnc(N4CCOCC4)c23)C1	–	inconclusive: 15.8 µM [inhibitor, partial curve, poor fit]
CCC1=C(C(=O)OC)C(c2ccccc2C)N2C(CC(=O)NC3CC3)=CSC2=N1 (stereo not given)	–	inconclusive: 28.2 µM [inhibitor, single point]
COc1ccc(Cn2cc(C(=O)c3ccc(F)cc3)c(=O)c3cc4c(cc32)OCCO4)cc1	inactive: -0.805%	–
COc1ccc(-c2nc3ccccc3o2)cc1NC(=O)c1ccc(-c2ccc(Br)cc2)o1	–	inconclusive: 39.8 µM [inhibitor, single point]
COc1ccc2nc3n(c2c1)[C@@H](CNCc1cnc2ccccc2c1)COC3	–	inconclusive: 28.2 µM [inhibitor, single point]
Cc1cc(C(=O)NCC2CCCCC2)c2ccccc2n1	inactive: 18.6%	–
Cc1occc1C(=O)N[C@@H]1CN(Cc2cccnc2)C[C@H]1CN(C)C	–	inconclusive: 39.8 µM [inhibitor, partial curve, poor fit]
CC1CCN(CCCNC2CCCCCC2)CC1	inactive: 14.1%	–
COc1ccc2nc(C[C@@H]3C[C@@H](C(C)C)[C@H](CNC(=O)Nc4ccc(F)cc4)C=C3C)[nH]c2c1	inactive: -20.2%	–

SMILES	activity change, negative = inhibition	Potency
COc1ccc(S(=O)(=O)N2CCN(Cc3ncc(-c4ccc(F)cc4)o3)CC2)cc1OC	inactive: -10.7%	–
COc1cccc(NC(=O)Cn2c(=O)ccc3cc(S(=O)(=O)N4CCC(C)CC4)ccc32)c1	–	inconclusive: 35.5 µM [inhibitor, partial curve, poor fit]
O=C(Cc1scnc1-c1cccs1)NCCc1ccc(Cl)cc1	inactive: -2.89%	–
Cc1ccc(S(=O)(=O)[C@H]2CS(=O)(=O)C[C@@H]2NCCc2ccc(Cl)cc2)cc1	inactive: 1.74%	–
COC[C@@H](N)C(=O)N1C[C@@H]2C[C@H]1C(=O)N2c1cc(-c2ccccc2)ccc1OC	–	inconclusive: 15.8 µM [inhibitor, partial curve, poor fit]
COc1ccc(C2=NC3(CCCCCC3)N(CC(=O)Nc3cccc(Cl)c3)C2=O)cc1	–	inconclusive: 2.51 µM [inhibitor, partial curve, poor fit]
Cc1cccc(NC(=O)c2n[nH]c([N+](=O)[O-])c2Br)c1C	–	inconclusive: 28.2 µM [inhibitor, single point]
Cc1ccn2c(Nc3ccc4c(c3)OCO4)c(-c3ccc(Cl)cc3)nc2c1	–	inconclusive: 35.5 µM [inhibitor, partial curve, poor fit]
CC(NC(=O)c1ccc2oc(-c3ccc(C(F)(F)F)cc3)nc2c1)c1cnn(C)c1 (stereo not given)	–	inconclusive: 39.8 µM [inhibitor, partial curve, poor fit]
c1ccc(-c2nnc3n2CCN(Cc2ccc4ccccc4c2)C3)cc1	–	inconclusive: 56.2 µM [inhibitor, partial curve, poor fit]
CC(C)NC(=O)c1cc(-c2ccccc2F)cc2c1OCCN2Cc1cccnc1	–	active: 22.4 µM
CCCCCN(CCC(=O)NCCCOC)C(=O)c1ccoc1	–	inconclusive: 35.5 µM [inhibitor, partial curve, poor fit]
C=CCNC(=O)Cc1c2c(n(Cc3ccccc3F)c1C)CCCC2=O	inactive: -21.6%	–
Cc1ccc(O)c(C(=O)N(C)Cc2cccc(F)c2)c1	inactive: 15.7%	–
O=C(Nc1ccc(F)c(F)c1)c1cc(S(=O)(=O)NCc2ccc3c(c2)OCO3)ccc1F	–	inconclusive: 39.8 µM [inhibitor, single point]
COc1ccc(CNC(=O)COC(=O)c2cc3ccccc3cc2O)cc1OC	–	inconclusive: 35.5 µM [inhibitor, single point]
CCOc1nc(NC(=O)NS(=O)(=O)Oc2cccc(Cl)c2)nc(-c2ccccc2)n1	–	inconclusive: 31.6 µM [inhibitor, partial curve, poor fit]
Oc1ccc(CNCc2ccco2)cc1	inactive: -12.9%	–
CNC(=O)c1cc(-c2ccc(N3CCOCC3)cc2)cc2c1OCCN2Cc1cccnc1	inactive: -18.5%	–
COc1cc(F)cc(-c2ncc3c(n2)OCCN(C)C3=O)c1	–	active: 35.5 µM
CCOc1ccc(-c2nnc(NC(=O)Cc3cc(OC)c(OC)c(OC)c3)o2)cc1	–	inconclusive: 31.6 µM [inhibitor, single point]
CCc1ccccc1NC(=O)CSc1nc2n[nH]c(C)c2c(=N)n1-c1cccc(C)c1	–	inconclusive: 56.2 µM [inhibitor, single point]

SMILES	activity change, negative = inhibition	Potency
COc1ccc(NC(=O)c2ccc3c(c2)N(C)C2CCCCN2C3=O)cc1Cl (stereo not given)	–	inconclusive: 28.2 µM [inhibitor, partial curve, poor fit]
O=C(NCc1cccs1)c1ccc(CSc2nc3cccnc3n2Cc2ccc(F)cc2)cc1	–	inconclusive: 31.6 µM [inhibitor, partial curve, poor fit]
Cc1cc(OC(=O)c2ccccc2Cl)cc(OC(=O)c2ccccc2Cl)c1	inactive: 8.74%	–
COCC1CN(C)CC12CCN(C(=O)c1ccc(OC(F)(F)F)cc1)CC2 (stereo not given)	–	inconclusive: 11.2 µM [inhibitor, partial curve]
CC(C)c1nc2nccc(-c3cccs3)n2n1	–	active: 25.1 µM
Cc1cccc2c1nc1n2[C@@H](CNC(=O)c2ccncc2)COC1	–	inconclusive: 20 µM [inhibitor, partial curve]
COc1ccc(CCNC(=O)c2c[nH]n3c(=O)c(Cc4ccccc4Cl)c(C)nc23)cc1OC	–	inconclusive: 25.1 µM [inhibitor, partial curve, poor fit]
CCn1c2c(c(=O)n3ncc(C(=O)Nc4ccc(OC(F)(F)F)cc4)c13)CN(Cc1ccc(OC)cc1)CC2	–	inconclusive: 15.8 µM [inhibitor, partial curve, poor fit]
COCC(=O)Nc1cc(C(=O)N2CCc3cc(OC)c(OC)cc3C2)c2c(c1)nc(C1CCC1)n2C	–	inconclusive: 25.1 µM [inhibitor, partial curve]
COc1ccc(OCc2ccc(-c3nc(C#N)c(N4CCC(C(N)=O)CC4)o3)o2)cc1	–	inconclusive: 31.6 µM [inhibitor, partial curve, poor fit]
Oc1ccc(-c2nc(C3CC3)nc3c2CN(Cc2ccc(C(F)(F)F)cc2)CC3)cc1	–	inconclusive: 31.6 µM [inhibitor, partial curve, poor fit]
CCc1noc(-c2ccn3c(CNC(=O)Cc4ccc(C)cc4)nnc3c2)n1	–	active: 28.2 µM
O=c1cc(C(F)(F)F)[nH]c2ccc(OC(F)(F)F)cc12	–	inconclusive: 35.5 µM [inhibitor, partial curve, poor fit]
N#C/C(=C/c1ccco1)C(=O)NC1CC1	inactive: 11.9%	–
Fc1cc(Nc2ncc(-c3cccnc3)c3c2OCC3)cc(N2CCOCC2)c1	–	active: 31.6 µM
CCc1ccc(NC(=O)c2cc(S(=O)(=O)N3CCCCC3)c[nH]2)cc1	–	inconclusive: 31.6 µM [inhibitor, partial curve, poor fit]
CSC1=N/C(=C\c2ccc(OC(C)=O)cc2)C(=O)S1	inactive: -16.4%	–
COc1ccc(C2c3c(n(C)c4ccccc34)C(=O)N2CC(=O)Nc2ccccc2Cl)cc1 (stereo not given)	–	inconclusive: 15.8 µM [inhibitor, partial curve, poor fit]
O=C(c1ccc(Nc2nc3ccccc3n3nnnc23)cc1)N1CCN(c2ccc(F)cc2)CC1	–	inconclusive: 3.98 µM [inhibitor, partial curve, poor fit]
COc1ccc(/C=C(\C#N)C(=O)N2CCOCC2)cc1	inactive: -24.8%	–
c1c[nH]c(C2CCCC2)n1	–	inconclusive: 178 µM [inhibitor, partial curve, poor fit]
